# Measured values: PubChem BioAssay AID1454 (National Center for Advancing Translational Sciences (NCATS), 2008)
# Values joined by “and” are separate entries in the source; they are usually repeats but may differ in a detail not shown here. Identical values can stand only once. In all, about 130,000 compounds went through this assay and about 550 (0.42%) were called active. The inconclusive results got no clear call from the source; some entries with a clear call stand among them for comparison. Calls follow the shape of the dose curve; as a rule, active = well fitted inhibition curve with a large enough effect; inconclusive = small, poorly fitted or top-dose-only effect, or effect the other way; inactive = flat fitted curve, though single readings scatter. Potencies beside an inconclusive call are fits to weak or partial responses and may not hold up.
# Test: qHTS Assay for Inhibitors of the ERK Signaling Pathway using a Homogeneous Screening Assay; Stimulation with EGF; also: nearly all actives have a fitted effect of over 55% in size
# Settings: HEK293-V1b, EGF-stimulated phospho-ERK AlphaScreen
# Procedure, shortened: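 EGF-stimulated (25 nM, 5 min) phospho-ERK in HEK293 cells stably expressing V1b, cells pretreated 30 min with compound at 37C. Homogeneous AlphaScreen read on lysates.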
# Potency is read from the fitted curve at half-maximal effect; tags tell the direction and shape of the fitted curve.
row,SMILES,Potency
1,Cn1cccc1C(=O)N1CCC2(CCCN(c3ccncc3)C2)CC1,inactive
2,O=[N+]([O-])c1cc(Cl)cc(/C=N/NC(=S)Nc2cc(S(=O)(=O)N3CCOCC3)ccc2Cl)c1O,"inconclusive: 28.2 µM [inhibitor, single point]"
3,N#Cc1ccc(-n2c(-c3ccccc3)nnc2-c2ccccc2)cc1C#N,"inconclusive: 39.8 µM [activator, single point]"
4,N=C1Sc2ccccc2C2=NCCCN12,inactive
5,CS(=O)(=O)c1ccc2c(c1)sc1nc(=O)c(/C=C3/C=CC(=O)C(O)=C3)c(N)n12,"inconclusive: 39.8 µM [inhibitor, single point]"
6,CCSC1=N/C(=C\C=C2/Oc3ccccc3N2CC)C(=O)S1,"inconclusive: 14.1 µM [inhibitor, partial curve]"
7,N/N=C(/Cc1nc2ccccc2[nH]1)c1ccc([N+](=O)[O-])cc1,"inconclusive: 20 µM [inhibitor, partial curve]"
8,CN1Cc2ccccc2CC1CNCc1c(C(=O)N2CCCC2)nc2ccccn12 (configuration not stated),"inconclusive: 39.8 µM [inhibitor, single point]"
9,C=CCn1c(O)c(N=NC(=S)Nc2ccc(OC)cc2)c2ccccc21,"inconclusive: 28.2 µM [inhibitor, single point]"
10,Cn1c(=NC(=O)C2=NNC(=O)CC2)sc2ccccc21,"inconclusive: 39.8 µM [inhibitor, single point]"
11,CCN1CCN(c2ccc(NC(=O)c3ccc4c(c3)[nH]c(=O)n4Cc3ccc(F)cc3)cc2)CC1,"inconclusive: 10 µM [activator, full curve, poor fit]"
12,CCN(CC)c1ccc(/C=c2\sc3nc4ccccc4n3c2=O)c(O)c1,"inconclusive: 15.8 µM [activator, partial curve]"
13,CCCOc1ccc(-c2nc(-c3ccc([N+](=O)[O-])cc3)cs2)cc1,"inconclusive: 35.5 µM [inhibitor, single point]"
14,CCOC(=O)C1(Cc2cccc(OC)c2)CCN(C/C=C/c2ccc(OC)cc2)CC1,"inconclusive: 31.6 µM [inhibitor, single point]"
15,CSc1nc2ccc(NS(=O)(=O)c3c(Cl)cccc3Cl)cc2s1,inactive
16,CC(C)OC(=O)c1ccc(NC(=O)c2cncc(Br)c2)cc1,"inconclusive: 10 µM [inhibitor, partial curve, poor fit]"
17,COc1ccccc1N(C)S(=O)(=O)c1ccc(C(=O)Nc2ccc(N3CCOCC3)cc2)cc1,"inconclusive: 11.2 µM [inhibitor, partial curve]"
18,COc1ccc(-c2nc3n(c2C)Cc2ccccc2-3)cc1,"inconclusive: 25.1 µM [activator, partial curve]"
19,O=C(NCc1cccnc1)c1ccccc1-c1nc(-c2ccccc2)no1,"inconclusive: 35.5 µM [inhibitor, single point]"
20,COc1ccc(-c2nc(NC(C)=O)sc2-c2ccccc2)cc1,inactive
21,Cc1cc(Nc2cc(F)ccc2C)n2nc(C)nc2n1,"inconclusive: 8.91 µM [inhibitor, partial curve]"
22,CCCCNc1c2c3c(cccc3n(C)c1=O)C(=O)c1ccccc1-2,"inconclusive: 15.8 µM [activator, partial curve]"
23,Cc1nc(Nc2ccccc2)c2nc(-c3ccccc3)n(CCCN3CCCCC3C)c2n1 (configuration not stated),inactive

row,SMILES,Potency
1,CCCCCC#CC[C@@H](O)/C=C/C=C/C=C\[C@@H](O)CCCC(=O)O,inactive
2,O=S(=O)(Nc1cc2nc3ccccc3nc2n1Cc1ccccc1)c1ccc(Cl)cc1,"inconclusive: 20 µM [inhibitor, single point]"
3,Cc1[nH]n(-c2ccccc2)c(=O)c1N=Nc1ccccc1C(=O)N1CCCCC1,"inconclusive: 31.6 µM [inhibitor, partial curve]"
4,O=C1C(Cl)=C(NC2CCc3ccccc32)C(=O)c2ncccc21 (configuration not stated),"inconclusive: 35.5 µM [inhibitor, single point]"
5,C[C@@H]1CC=C[C@H]2[C@H]1C(=O)N(Cc1ccccc1)[C@H]2c1ccc(F)c(/C=C/c2ccccc2)c1,inactive
6,COc1ccc(C2c3c(ncn(CCCO)c3=N)Oc3ccc4ccccc4c32)cc1 (configuration not stated),active: 39.8 µM
7,CCCCCCCCCCCCCCCCn1cc[n+](C)c1,"inconclusive: 14.1 µM [inhibitor, partial curve] and inconclusive: 25.1 µM [inhibitor, single point]"
8,CCN(CC(=O)NCc1ccc(Cl)cc1)CC(=O)Nc1ccc(C(N)=O)cc1,inactive
9,O=C1ON=C(c2ccccc2)/C1=C\c1ccco1,"inconclusive: 39.8 µM [inhibitor, single point]"
10,COc1ccc(OCC(O)Cn2cnc(-c3ccc(Br)cc3)c2)cc1 (configuration not stated),"inconclusive: 39.8 µM [inhibitor, single point]"
11,CN(C)c1nc(-c2cccnc2)nc(-c2ccc(Cl)cc2)c1C#N,"inconclusive: 44.7 µM [activator, partial curve, poor fit]"
12,CN1CCN(c2ccccc2NC(=O)c2sc3ccccc3c2Cl)CC1,"inconclusive: 28.2 µM [inhibitor, single point]"
13,COc1ccc(N=c2cc(-c3ccc(OC)cc3)oc3ccccc23)cc1,"inconclusive: 20 µM [inhibitor, partial curve]"
14,CN1CCc2cc3c(cc2C(=O)Cc2ccc4c(c2C1)OCO4)OCO3,inactive
15,CS/C(N)=N/N=C/c1c(O)ccc2ccccc12,"inconclusive: 7.08 µM [inhibitor, single point]"
16,COC(=O)N/N=C/c1ccc([N+](=O)[O-])o1,inactive
17,CCc1ccc(CN(C)C(=O)CCc2nnc(-c3ccc(-c4ccccc4)cc3)o2)nc1,"inconclusive: 35.5 µM [inhibitor, single point]"
18,COc1ccc(CNc2ncncc2-c2ccc3c(c2)OCO3)c(OC)c1,inactive
19,Nc1c(C(=O)Nc2ccccc2)c2nc3ccccc3nc2n1-c1ccc(O)cc1,inactive
20,Cc1ccc(NC(=S)NC2CCN(Cc3ccccc3)CC2)c(C)c1,inactive
21,CC(=O)OC1CCC2C3CCc4cc(O)ccc4C3CCC12C (configuration not stated),"inconclusive: 20 µM [inhibitor, single point]"
22,O=C(Nc1nc2ccccc2[nH]1)c1ccc(S(=O)(=O)N2CCOCC2)cc1,"inconclusive: 31.6 µM [activator, partial curve]"
23,O=C1CCCC/C1=N\Nc1ccc(C2CCCCC2)cc1,inactive

row,SMILES,Potency
1,Cc1ccc(C(=S)N2CCN(Cc3ccccc3)CC2)cc1,"inconclusive: 35.5 µM [inhibitor, partial curve, poor fit]"
2,CCn1c(O)c(/C=C2\C=NN=C2c2ccccc2)sc1=S,"inconclusive: 22.4 µM [inhibitor, single point]"
3,COc1ccc(/C=C/C=C2\NC(=S)NC2=O)cc1,"inconclusive: 6.31 µM [inhibitor, single point]"
4,COc1ccc(CCNC(=O)CSc2nc3[nH]ncc3c(=O)[nH]2)cc1OC,"inconclusive: 0.501 µM [activator, full curve, poor fit]"
5,CCOc1ccc(N/C(SCc2cccc([N+](=O)[O-])c2)=C(/C#N)C(N)=O)cc1,"inconclusive: 28.2 µM [inhibitor, single point]"
6,CCCCCc1cc(=O)oc2c(C(CCN3CCCC(C)C3)c3ccc(N(C)C)cc3)c(OC)cc(OC)c12 (configuration not stated),"inconclusive: 28.2 µM [inhibitor, single point]"
7,CCCNC(=O)c1cc(S(=O)(=O)N2CCc3ccccc32)ccc1F,"inconclusive: 5.01 µM [inhibitor, single point]"
8,CC(C)N1C(=O)S/C(=C/c2ccc(Sc3nc4ccccc4[nH]3)o2)C1=O,"inconclusive: 8.91 µM [inhibitor, partial curve]"
9,COC(=O)C1(CC(C)C)C=C2C(=C(C(C)C)C(=O)C2C)CN1 (configuration not stated),inactive
10,COc1ccc2oc(=O)c(-c3csc(Nc4ccc(O)cc4)n3)cc2c1,"inconclusive: 35.5 µM [inhibitor, single point]"
11,CCCCC1=CC2=C(OC(C)=O)C(=O)C(C)(OC(=O)C3CCCC3)C(=O)C2=CO1 (configuration not stated),inactive
12,CC(=O)N1CCCC(C(=O)c2ccc(Oc3ccccc3)cc2)C1 (configuration not stated),"inconclusive: 4.47 µM [inhibitor, single point]"
13,COc1ccc(N2CCN(c3nc(Nc4ccc(C)c(F)c4)nc(N4CCCC4)n3)CC2)cc1,"inconclusive: 14.1 µM [inhibitor, partial curve]"
14,O=c1c2ccc([N+](=O)[O-])cc2ncn1Cc1ccccc1C(F)(F)F,"inconclusive: 3.98 µM [inhibitor, single point]"
15,Oc1ccc(/C=N/N2CCN(C3c4ccccc4-c4ccccc43)CC2)c(O)c1,"inconclusive: 22.4 µM [inhibitor, partial curve]"
16,COc1cc(-c2cccs2)cc(=O)c2c(C)oc(C)c12,"inconclusive: 5.01 µM [activator, single point]"
17,CN(C)c1ccc(-c2cc(NCc3cccnc3)ncn2)cc1,inactive
18,CCN(CC)c1ccc2cc(-c3nc(-c4ccc(OC)cc4)cs3)c(=O)oc2c1,"inconclusive: 20 µM [activator, partial curve]"
19,CN(C)c1ccc(Nc2c3c4c(cccc4n(C)c2=O)C(=O)c2ccccc2-3)cc1,active: 3.16 µM
20,O=C(/C=C/c1cc[n+](CC(=O)c2ccc3cccc4c3c2CC4)cc1)c1ccc2cccc3c2c1CC3,"inconclusive: 28.2 µM [inhibitor, single point]"
21,Cc1nc(SCC(=O)Nc2ccc(Cl)cc2[N+](=O)[O-])nc(C)c1C,"inconclusive: 39.8 µM [inhibitor, single point]"
